Results from article PMC4336329 (PLoS ONE, 2015).
The campaign covered roughly 310,000 compounds. About 2,200 (0.71%) showed an effect of 50% or more. The effect is printed as a negative number. The list shows a part of the results.

biological target: human ether-à-go-go-related gene (hERG) potassium channel (human, UniProt Q12809); assay: primary screen, population patch clamp on CHO cells stably expressing hERG
Sequence (Q12809 whole entry, looked up): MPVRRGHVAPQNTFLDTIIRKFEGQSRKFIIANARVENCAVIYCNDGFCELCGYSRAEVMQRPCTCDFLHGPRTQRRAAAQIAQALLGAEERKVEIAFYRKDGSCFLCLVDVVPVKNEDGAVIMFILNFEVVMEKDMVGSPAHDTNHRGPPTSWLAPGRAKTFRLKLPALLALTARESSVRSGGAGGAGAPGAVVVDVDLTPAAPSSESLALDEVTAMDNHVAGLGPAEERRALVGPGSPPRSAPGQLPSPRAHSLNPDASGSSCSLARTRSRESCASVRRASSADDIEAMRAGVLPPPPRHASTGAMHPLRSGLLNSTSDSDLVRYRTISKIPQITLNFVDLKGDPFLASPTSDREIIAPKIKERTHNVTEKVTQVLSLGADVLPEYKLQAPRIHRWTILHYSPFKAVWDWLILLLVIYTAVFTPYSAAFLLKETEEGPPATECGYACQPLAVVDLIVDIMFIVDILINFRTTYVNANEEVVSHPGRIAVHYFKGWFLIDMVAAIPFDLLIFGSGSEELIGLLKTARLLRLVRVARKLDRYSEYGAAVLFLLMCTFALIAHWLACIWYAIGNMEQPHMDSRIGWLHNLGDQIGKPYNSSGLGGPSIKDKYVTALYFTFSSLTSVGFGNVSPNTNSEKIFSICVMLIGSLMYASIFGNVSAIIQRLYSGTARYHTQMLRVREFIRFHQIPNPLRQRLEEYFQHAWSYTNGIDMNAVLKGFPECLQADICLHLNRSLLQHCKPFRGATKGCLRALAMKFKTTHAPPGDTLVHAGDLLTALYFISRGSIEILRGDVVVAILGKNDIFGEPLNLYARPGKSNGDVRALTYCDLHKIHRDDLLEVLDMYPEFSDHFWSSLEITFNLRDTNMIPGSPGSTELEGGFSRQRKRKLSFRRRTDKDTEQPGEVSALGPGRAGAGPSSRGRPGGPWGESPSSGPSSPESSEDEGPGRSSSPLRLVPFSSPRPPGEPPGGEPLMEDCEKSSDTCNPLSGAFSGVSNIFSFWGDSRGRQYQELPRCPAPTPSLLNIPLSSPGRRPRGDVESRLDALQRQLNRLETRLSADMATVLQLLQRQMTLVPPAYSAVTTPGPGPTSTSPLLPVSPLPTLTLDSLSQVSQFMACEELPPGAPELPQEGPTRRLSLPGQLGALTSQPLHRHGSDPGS

SMILES	hERG current change (%, negative = inhibition) at 1uM [%]
CC(C)(C)OC(=O)C1C(=O)CC(C)(O)C(C(=O)OC(C)(C)C)C1c1cccnc1 (stereo not drawn)	12.9
C[C@H](NC(=O)C1CC(=O)N(c2ccc3c(c2)OCO3)C1)C(=O)NC1CCCCC1 (stereo partly drawn)	0.0211
CCOC(=O)Nc1sc(C)nc1-c1ccccc1	13.9
O=C1CCCN1CC(O)CS(=O)(=O)Cc1ccc(Cl)cc1Cl (stereo not drawn)	10.2
CCC(C)/C(C)=N/NC(=O)CNS(=O)(=O)c1ccc([N+](=O)[O-])cc1 (stereo not drawn)	0.923
CC1CC(C)CN(C(=O)Cn2c(SCC(=O)N3CCc4ccccc4C3)nc3ccccc32)C1 (stereo not drawn)	8.52
O=c1[nH]c(=S)[nH]c(O)c1N=Nc1ccc(S(=O)(=O)N2CCOCC2)cc1	11.1
CS(=O)(=O)c1ccc(Sc2nc3ccccc3[nH]2)c([N+](=O)[O-])c1	-7.12
CN(CC(=O)Nc1c(Cl)cccc1Cl)C(=O)CCC1CCCC1	16.7
CC(=O)C[C@H]1c2ccccc2S(=O)(=O)N1c1ccccc1	15
O=C1CC(c2ccccc2)n2nc(N3C(=O)CCC3=O)nc2N1 (stereo not drawn)	9.75
O=C(O)c1ccc(-c2ccc(-c3ccccc3)cc2)s1	8.38
O=C(CCCOc1ccc(Br)cc1)NNC(=O)c1ccncc1	3.38
CCOC(=O)c1c(C)[nH]c(C)c1C(=O)COC(=O)/C=C/c1cccc(C(F)(F)F)c1	17.4
Cc1nn2cc(-c3ccccc3)nc2s1	9.28
O=C(Nc1ccc2c(c1)OCO2)c1cccc(S(=O)(=O)N2CCCC2)c1	5.28
CC(NC(=O)c1ccco1)C1CCCO1 (stereo not drawn)	-9.1
Cc1cn(-c2cc(C(=O)Nc3ccc(C)c(NC(=O)N4CCNC4=O)c3)cc(C(F)(F)F)c2)cn1	8.83
COc1ccc(N2C(=O)C3CCCN3C2=O)cc1 (stereo not drawn)	-4.76

SMILES	hERG current change (%, negative = inhibition) at 1uM [%]
Cc1ccc(C)c(NC(=O)CNC(=O)N2CC(=O)Nc3ccccc32)c1	16.2
CCC(C)c1ccc(OCCCCN2CCOCC2)cc1 (stereo not drawn)	-2.59
COc1nc2ccc(C)cc2cc1-c1noc(-c2ccccc2)n1	11.1
CCc1ccc(-c2nc(CS(=O)CC(=O)NCCN3CCCCCC3)c(C)o2)cc1 (stereo not drawn)	1.25
Cl.OCCN(CC#CC(O)(c1ccccc1)c1cccc(F)c1)CCO (stereo not drawn)	14.5
COCc1cc(C)nc2sc(C(=O)NC3CCCCC3)c(N)c12	9.17
Cc1cc(C)nc(SCc2ccc(C(=O)N/N=C3\CC(C)CC(C)(C)C3)cc2)n1 (stereo not drawn)	8.85
CCOC(=O)c1cnc(SCC(=O)Nc2nnc(CC)s2)nc1N	12.6
COCCCNS(=O)(=O)c1ccc(SC)cc1	8.83
CCOC(=O)C(NC(=O)CC)(Nc1ccc(C(O)(C(=O)OCC)C(F)(F)F)cc1C)C(F)(F)F (stereo not drawn)	6.23
CC(/C=N/n1c(-c2cc(C)[nH]n2)n[nH]c1=S)=C\c1ccccc1	15.2
COc1cc2c(cc1OC)CN(C(=O)CSc1n[nH]c(N)n1)CC2	11
CN(Cc1cn(C)nc1-c1ccccc1F)CC1CCCCO1 (stereo not drawn)	7.71
CCOP(=O)(OCC)C(O)c1ccc(OC)c(OC)c1 (stereo not drawn)	13.2
COC(=O)COc1ccc(S(=O)(=O)NCc2ccco2)cc1	7.98
Cc1cccc(CN2CCCC(C(=O)N3CCCCC3)C2)c1.O=C(O)C(=O)O (stereo not drawn)	9.42
Cc1c(NC(=S)N2CCN(c3ccc(F)cc3)CC2)c(=O)n(-c2ccccc2)n1C	8.35
Cc1cc(NC(=O)CCC(=O)N(C2CC2)C2(C(=O)NC3CCCC3)CCC(C)CC2)no1 (stereo not drawn)	3.79
O=C(NC1CCCCC1)C(c1ccc(F)cc1)N(C(=O)c1csnn1)C1CC1 (stereo not drawn)	13

SMILES	hERG current change (%, negative = inhibition) at 1uM [%]
Cc1cccc(OCCCN2CCOCC2)c1C	12.8
CCN(CC)S(=O)(=O)c1ccc(-c2nnc(SCC(=O)N3c4ccccc4CC3C)n2CC)cc1 (stereo not drawn)	7.89
COc1ccccc1/C=C/C(=O)NC(=S)Nc1ccc(S(=O)(=O)N(C)c2ccccc2)cc1	12.3
Cc1cc(NC(=O)CSCC(=O)OCC(=O)Nc2ccc(OC(F)F)cc2)no1	4.09
CN1C(=O)C(C)(C)c2cc(S(=O)(=O)NCC3CCC(C(=O)NCc4ccccc4)CC3)ccc21 (stereo not drawn)	9.43
O=[N+]([O-])c1cccnc1N1CCC(c2cc(-c3cccc(C(F)(F)F)c3)n[nH]2)CC1	-17.4
O=C(CN1C(=O)NC2(CCCCCCC2)C1=O)NC1CCCc2ccccc21 (stereo not drawn)	10.6
COc1ccc(Nc2cc(C)nc3nc(C)nn23)c(OC)c1	3.76
COC(=O)CN1C(=O)COc2ccc(S(=O)(=O)NCc3ccccc3)cc21	11.4
O=C(C[n+]1cn(C(F)F)c2ccccc21)c1ccc(OC(F)F)cc1.[Br-]	-53.7
COc1ccccc1NC(=O)c1cc[n+](C)cc1.[I-]	12.8
CNc1cc(C)nc(-n2nc(C)cc2C)n1	1.09
Cc1sc(NC(=O)COc2cccc(-n3cnnn3)c2)c(C#N)c1C	3.36
Cc1ccc2[nH]c(C(F)(F)F)cc(=O)c2c1	15.4
Cc1cnc(-n2c(=S)[nH]c3ccccc3c2=O)s1	6.53
O=C(Nc1nnc(-c2ccncc2)s1)Nc1ccccc1F	14.4
CCn1cc(/C=N\NC(=O)C2(C)CC2(Cl)Cl)c(C)n1 (stereo not drawn)	11.6
O=C(NCC(c1ccc(F)cc1)N1CCOCC1)c1cccnc1Sc1ccc(Cl)cc1 (stereo not drawn)	7
COc1ccc(-c2nnc3n(CCc4ccccc4)c(=O)c4ccccc4n23)cc1OC	10.4
